# Reference: the supplement of paper PMC8728848
# The list shows a part of the results.
# B1: DrGRIFIN (Danio rerio), Q6DGJ1 (protein)
# chain: MTLRFEASCPDGLCPGWSVILKGETPPEASKFEINFLCDRDDRVAFHFNPRFTESDIICNSYMANRWGQEERCNHFPLGVEEPFQIEIYSDNDHFHVYIDKAKVMQYKHRVEDLKTITKLQVVNDVKISSLEITKKLFY
# Assays:
# Experiment in all cases: glycan array binding signal (z-score within array); higher = stronger binding
# Conditions in all cases: glycan notation: IUPAC condensed, linker removed
# Gal(b1-2)Gal = biological target: Gal(b1-2)Gal
# Procedure, shortened: (§1)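 From the Consortium for Functional Glycomics database, 3228 arrays were curated, keeping only those whose protein sequence was available. Binding is given as a within-array Z-score averaged across arrays sharing a protein sequence and across linkers. Negative Z-scores can be read as non-binding.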
# Gal(b1-3)Gal = biological target: Gal(b1-3)Gal
# Procedure, shortened: as §1
# Gal(b1-3)Gal(b1-4)GlcNAc = biological target: Gal(b1-3)Gal(b1-4)GlcNAc
# Procedure, shortened: as §1
# Gal(b1-3)GalNAc = biological target: Gal(b1-3)GalNAc
# Procedure, shortened: as §1
# [1] = biological target: Gal(b1-3)GalNAc(a1-3)[Fuc(a1-2)]Gal(b1-4)Glc
# Procedure, shortened: as §1
# [2] = biological target: Gal(b1-3)GalNAc(a1-3)[Fuc(a1-2)]Gal(b1-4)GlcNAc
# Procedure, shortened: as §1
# Gal(b1-3)GalNAc(b1-3)Gal = biological target: Gal(b1-3)GalNAc(b1-3)Gal
# Procedure, shortened: as §1
# [3] = biological target: Gal(b1-3)GalNAc(b1-3)Gal(a1-4)Gal(b1-4)Glc
# Procedure, shortened: as §1
# [4] = biological target: Gal(b1-3)GalNAc(b1-4)Gal(b1-4)Glc
# Procedure, shortened: as §1
# [5] = biological target: Gal(b1-3)GalNAc(b1-4)[Neu5Ac(a2-3)]Gal(b1-4)Glc
# Procedure, shortened: as §1
# Gal(b1-3)GlcNAc = biological target: Gal(b1-3)GlcNAc
# Procedure, shortened: as §1
# [6] = biological target: Gal(b1-3)GlcNAc(a1-3)Gal(b1-4)GlcNAc
# Procedure, shortened: as §1
# [7] = biological target: Gal(b1-3)GlcNAc(a1-6)Gal(b1-4)GlcNAc
# Procedure, shortened: as §1
# Gal(b1-3)GlcNAc(b1-2)Man = biological target: Gal(b1-3)GlcNAc(b1-2)Man
# Procedure, shortened: as §1
# [8] = biological target: Gal(b1-3)GlcNAc(b1-2)Man(a1-3)[Gal(b1-3)GlcNAc(b1-2)Man(a1-6)]Man(b1-4)GlcNAc(b1-4)GlcNAc
# Procedure, shortened: as §1
# [9] = biological target: Gal(b1-3)GlcNAc(b1-2)Man(a1-3)[Gal(b1-3)GlcNAc(b1-2)Man(a1-6)]Man(b1-4)GlcNAc(b1-4)[Fuc(a1-6)]GlcNAc
# Procedure, shortened: as §1
# [10] = biological target: Gal(b1-3)GlcNAc(b1-2)Man(a1-3)[GlcNAc(b1-4)][Gal(b1-3)GlcNAc(b1-2)Man(a1-6)]Man(b1-4)GlcNAc(b1-4)GlcNAc
# Procedure, shortened: as §1
# [11] = biological target: Gal(b1-3)GlcNAc(b1-2)[Gal(b1-3)GlcNAc(b1-6)]Man(a1-6)[Gal(b1-3)GlcNAc(b1-2)Man(a1-3)]Man(b1-4)GlcNAc(b1-4)GlcNAc
# Procedure, shortened: as §1
# [12] = biological target: Gal(b1-3)GlcNAc(b1-3)Gal(b1-3)GlcNAc
# Procedure, shortened: as §1
# [13] = biological target: Gal(b1-3)GlcNAc(b1-3)Gal(b1-4)Glc
# Procedure, shortened: as §1
# [14] = biological target: Gal(b1-3)GlcNAc(b1-3)Gal(b1-4)GlcNAc
# Procedure, shortened: as §1
# [15] = biological target: Gal(b1-3)GlcNAc(b1-3)Gal(b1-4)GlcNAc(b1-2)Man(a1-3)[Gal(b1-3)GlcNAc(b1-3)Gal(b1-4)GlcNAc(b1-2)Man(a1-6)]Man(b1-4)GlcNAc(b1-4)GlcNAc
# Procedure, shortened: as §1
# [16] = biological target: Gal(b1-3)GlcNAc(b1-3)Gal(b1-4)GlcNAc(b1-2)[Gal(b1-3)GlcNAc(b1-3)Gal(b1-4)GlcNAc(b1-6)]Man(a1-6)[Gal(b1-3)GlcNAc(b1-3)Gal(b1-4)GlcNAc(b1-2)Man(a1-3)]Man(b1-4)GlcNAc(b1-4)[Fuc(a1-6)]GlcNAc
# Procedure, shortened: as §1
# [17] = biological target: Gal(b1-3)GlcNAc(b1-3)Gal(b1-4)GlcNAc(b1-3)Gal(b1-4)GlcNAc(b1-2)[Gal(b1-3)GlcNAc(b1-3)Gal(b1-4)GlcNAc(b1-3)Gal(b1-4)GlcNAc(b1-6)]Man(a1-6)[Gal(b1-3)GlcNAc(b1-3)Gal(b1-4)GlcNAc(b1-3)Gal(b1-4)GlcNAc(b1-2)Man(a1-3)]Man(b1-4)GlcNAc(b1-4)[Fuc(a1-6)]GlcNAc
# Procedure, shortened: as §1
# [18] = biological target: Gal(b1-3)GlcNAc(b1-3)Gal(b1-4)GlcNAc(b1-6)[Gal(b1-3)GlcNAc(b1-3)]Gal(b1-4)Glc
# Procedure, shortened: as §1
# [19] = biological target: Gal(b1-3)GlcNAc(b1-3)Gal(b1-4)[Fuc(a1-3)]GlcNAc
# Procedure, shortened: as §1
# [20] = biological target: Gal(b1-3)GlcNAc(b1-3)Gal(b1-4)[Fuc(a1-3)]GlcNAc(b1-6)[Gal(b1-3)GlcNAc(b1-3)]Gal(b1-4)Glc
# Procedure, shortened: as §1
# [21] = biological target: Gal(b1-3)GlcNAc(b1-3)GalNAc
# Procedure, shortened: as §1
# [22] = biological target: Gal(b1-3)GlcNAc(b1-6)Gal(b1-4)GlcNAc
# Procedure, shortened: as §1
# [23] = biological target: Gal(b1-3)GlcNAc(b1-6)GalNAc
# Procedure, shortened: as §1
# [24] = biological target: Gal(b1-3)GlcNAc(b1-6)[Gal(b1-3)]GalNAc
# Procedure, shortened: as §1
# Gal(b1-3)GlcNAc6S = biological target: Gal(b1-3)GlcNAc6S
# Procedure, shortened: as §1
# [25] = biological target: Gal(b1-3)[Fuc(a1-4)]GlcNAc
# Procedure, shortened: as §1
# [26] = biological target: Gal(b1-3)[Fuc(a1-4)]GlcNAc(b1-2)Man
# Procedure, shortened: as §1
# [27] = biological target: Gal(b1-3)[Fuc(a1-4)]GlcNAc(b1-2)Man(a1-3)[Gal(b1-3)[Fuc(a1-4)]GlcNAc(b1-2)Man(a1-6)]Man(b1-4)GlcNAc(b1-4)[Fuc(a1-6)]GlcNAc
# Procedure, shortened: as §1
# [28] = biological target: Gal(b1-3)[Fuc(a1-4)]GlcNAc(b1-3)Gal(b1-3)[Fuc(a1-4)]GlcNAc
# Procedure, shortened: as §1
# [29] = biological target: Gal(b1-3)[Fuc(a1-4)]GlcNAc(b1-3)Gal(b1-4)[Fuc(a1-3)]GlcNAc
# Procedure, shortened: as §1
# [30] = biological target: Gal(b1-3)[Fuc(a1-4)]GlcNAc(b1-6)GalNAc
# Procedure, shortened: as §1
# [31] = biological target: Gal(b1-3)[GlcNAc(b1-6)]GalNAc
# Procedure, shortened: as §1
# [32] = biological target: Gal(b1-3)[Neu5Ac(a2-6)]GalNAc
# Procedure, shortened: as §1
# [33] = biological target: Gal(b1-3)[Neu5Ac(a2-6)]GlcNAc(b1-4)Gal(b1-4)Glc
# Procedure, shortened: as §1
# [34] = biological target: Gal(b1-3)[Neu5Ac(b2-6)]GalNAc
# Procedure, shortened: as §1
# Gal(b1-4)Gal = biological target: Gal(b1-4)Gal
# Procedure, shortened: as §1
# [35] = biological target: Gal(b1-4)GalNAc(a1-3)[Fuc(a1-2)]Gal(b1-4)GlcNAc
# Procedure, shortened: as §1
# [36] = biological target: Gal(b1-4)GalNAc(b1-3)[Fuc(a1-2)]Gal(b1-4)GlcNAc
# Procedure, shortened: as §1
binder,measurement,setting,value
B1,glycan array binding signal (z-score),Gal(b1-2)Gal,-0.134
same,glycan array binding signal (z-score),Gal(b1-3)Gal,-0.207
same,glycan array binding signal (z-score),Gal(b1-3)Gal(b1-4)GlcNAc,-0.172
same,glycan array binding signal (z-score),Gal(b1-3)GalNAc,-0.17
same,glycan array binding signal (z-score),[1],-0.156
same,glycan array binding signal (z-score),[2],0.014
same,glycan array binding signal (z-score),Gal(b1-3)GalNAc(b1-3)Gal,-0.166
same,glycan array binding signal (z-score),[3],-0.142
same,glycan array binding signal (z-score),[4],-0.159
same,glycan array binding signal (z-score),[5],-0.199
same,glycan array binding signal (z-score),Gal(b1-3)GlcNAc,-0.131
same,glycan array binding signal (z-score),[6],-0.193
same,glycan array binding signal (z-score),[7],-0.138
same,glycan array binding signal (z-score),Gal(b1-3)GlcNAc(b1-2)Man,-0.2
same,glycan array binding signal (z-score),[8],-0.16
same,glycan array binding signal (z-score),[9],-0.135
same,glycan array binding signal (z-score),[10],-0.155
same,glycan array binding signal (z-score),[11],-0.168
same,glycan array binding signal (z-score),[12],-0.074
same,glycan array binding signal (z-score),[13],0.225
same,glycan array binding signal (z-score),[14],-0.092
same,glycan array binding signal (z-score),[15],-0.088
same,glycan array binding signal (z-score),[16],-0.124
same,glycan array binding signal (z-score),[17],-0.107
same,glycan array binding signal (z-score),[18],-0.101
same,glycan array binding signal (z-score),[19],-0.203
same,glycan array binding signal (z-score),[20],-0.128
same,glycan array binding signal (z-score),[21],-0.118
same,glycan array binding signal (z-score),[22],-0.116
same,glycan array binding signal (z-score),[23],-0.246
same,glycan array binding signal (z-score),[24],-0.189
same,glycan array binding signal (z-score),Gal(b1-3)GlcNAc6S,-0.164
same,glycan array binding signal (z-score),[25],-0.187
same,glycan array binding signal (z-score),[26],-0.194
same,glycan array binding signal (z-score),[27],-0.1
same,glycan array binding signal (z-score),[28],-0.17
same,glycan array binding signal (z-score),[29],-0.175
same,glycan array binding signal (z-score),[30],-0.191
same,glycan array binding signal (z-score),[31],-0.119
same,glycan array binding signal (z-score),[32],-0.177
same,glycan array binding signal (z-score),[33],0.075
same,glycan array binding signal (z-score),[34],-0.18
same,glycan array binding signal (z-score),Gal(b1-4)Gal,-0.207
same,glycan array binding signal (z-score),[35],-0.219
same,glycan array binding signal (z-score),[36],-0.175
